# From paper PMC4336329 (PLoS ONE, 2015)
# The whole screen tested about 310,000 compounds, of which about 2,200 (0.71%) showed an effect of 50% or more. The effect is printed as a negative number. The list shows a part of the results.
# Biological target: human ether-à-go-go-related gene (hERG) potassium channel (human, UniProt Q12809)
# Experiment: primary screen, population patch clamp on CHO cells stably expressing hERG
# human ether-à-go-go-related gene (hERG) potassium channel, sequence (Q12809 whole entry, looked up): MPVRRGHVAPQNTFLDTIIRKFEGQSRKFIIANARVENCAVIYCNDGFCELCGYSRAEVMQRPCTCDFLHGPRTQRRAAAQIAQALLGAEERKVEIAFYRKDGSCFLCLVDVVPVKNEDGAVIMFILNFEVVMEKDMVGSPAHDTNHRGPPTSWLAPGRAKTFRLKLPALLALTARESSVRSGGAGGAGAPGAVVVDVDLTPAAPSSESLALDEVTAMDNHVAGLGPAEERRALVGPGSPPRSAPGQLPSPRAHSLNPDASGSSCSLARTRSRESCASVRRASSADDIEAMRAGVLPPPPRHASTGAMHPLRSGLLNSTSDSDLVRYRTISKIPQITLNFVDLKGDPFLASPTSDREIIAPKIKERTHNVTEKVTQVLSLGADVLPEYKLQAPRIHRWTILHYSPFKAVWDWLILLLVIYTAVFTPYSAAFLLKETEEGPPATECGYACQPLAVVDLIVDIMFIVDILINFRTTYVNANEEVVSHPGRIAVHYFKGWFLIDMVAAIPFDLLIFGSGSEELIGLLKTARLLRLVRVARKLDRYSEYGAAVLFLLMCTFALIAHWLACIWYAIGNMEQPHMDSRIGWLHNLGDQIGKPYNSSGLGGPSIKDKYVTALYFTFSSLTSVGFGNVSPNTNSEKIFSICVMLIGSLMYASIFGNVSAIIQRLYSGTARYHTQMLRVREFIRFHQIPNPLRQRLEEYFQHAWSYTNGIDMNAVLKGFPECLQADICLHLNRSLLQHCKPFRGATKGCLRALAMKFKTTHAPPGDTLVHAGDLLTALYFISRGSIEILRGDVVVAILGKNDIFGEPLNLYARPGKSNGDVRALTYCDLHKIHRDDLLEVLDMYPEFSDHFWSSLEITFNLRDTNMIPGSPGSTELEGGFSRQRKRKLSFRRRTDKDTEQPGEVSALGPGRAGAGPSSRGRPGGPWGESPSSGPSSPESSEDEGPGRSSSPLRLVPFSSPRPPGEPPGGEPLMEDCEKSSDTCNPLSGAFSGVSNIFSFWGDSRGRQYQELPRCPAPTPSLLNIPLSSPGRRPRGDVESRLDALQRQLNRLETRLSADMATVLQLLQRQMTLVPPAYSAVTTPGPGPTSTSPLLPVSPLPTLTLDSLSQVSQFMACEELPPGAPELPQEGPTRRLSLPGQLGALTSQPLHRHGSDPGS
row,SMILES,"hERG current change (%, negative = inhibition) at 1uM [%]"
1,CCOC(=O)CNC(=S)N(CCCN1CCCCC1)Cc1cccs1,-31.3
2,CNC(=O)C(=O)NCC1OCCCN1S(=O)(=O)c1ccc(F)cc1C (stereo not shown),12.2
3,COc1ccc2nc(SCC(=O)NN)cc(C)c2c1,5.82
4,CCOCCCNC(=O)CCN1C(=O)c2ccccc2Sc2ncccc21,12.9
5,CC(=O)Nc1cccc(OCC(=O)Nc2ccc(F)cc2)c1,1.52
6,CCOc1cc2c3c(c1)C1(C(=O)N3C(C)(C)CC2C)C(C#N)=C(N)N2C(=C1C#N)Nc1ccccc12 (stereo not shown),16.3
7,Cc1cc(C)c(S(=O)(=O)N2CCN(C(=O)CN3C(=O)NC4(CCCC4)C3=O)CC2)c(C)c1,-1.96
8,CCN(CC)c1ccc(C(=O)NNC(=O)CN2C(=O)NC3(CCCCC3)C2=O)cc1,2
9,CC(C)CC(NC(N)=O)C(=O)NCCc1ccc(Cl)cc1 (stereo not shown),20.7
10,O=[N+]([O-])c1cccc(-n2cc3ccc([N+](=O)[O-])cc3n2)c1,10.2
11,CC(=O)COc1ccc2c(-c3ccccc3)cc(=O)oc2c1,9.38
12,O=C(NCCC1CCCC1)c1cccs1,-0.073
13,COc1ccc(NC(=O)CN(C)C(=O)c2ccccc2OC)cc1,8.96
14,O=C(COc1ccc(S(=O)(=O)NC2CCCCC2)cc1)NC1CCCC1,9.05
15,COc1ccc(C(=O)OCC(=O)c2ccc(C)c(S(=O)(=O)N3CCOCC3)c2)cc1OC,2.21
16,N#Cc1ccc(-c2nc3cc(Cl)ccc3c(=O)n2O)cc1,8.33
17,CCOC(=O)c1c(-c2ccc(OC)cc2)oc2ccc(OCC(N)=O)cc12,15.2
18,COc1ccc(C2CC3(CC(C)(C)NC(=S)N3)Oc3cc(O)cc(C)c32)cc1OC (stereo not shown),15.9
19,CN1CCN(CCCNC(=O)Nc2cccc3ccccc23)CC1,5.94
20,CC(C)=C(C#N)c1nc2ccccc2s1,3.47
21,COc1ccc(NC(=O)Cn2c(NCC(C)O)nc3ccccc32)cc1Cl (stereo not shown),14.2
22,CCN(CC)S(=O)(=O)c1cccc(NC(=O)CNc2cccc(S(=O)(=O)N3CCCC3)c2)c1,11.4

row,SMILES,"hERG current change (%, negative = inhibition) at 1uM [%]"
1,CCOC(=O)C/C(N)=N/N(C)c1ncc(C(F)(F)F)cc1Cl,15.6
2,O=C1CCc2cc(S(=O)(=O)NC(Cc3ccccc3)C(=O)NCCC3=CCCCC3)ccc2N1 (stereo not shown),11
3,COc1ccc(C(=O)O/N=C(\N)c2ccncc2)cc1OC,10.4
4,Cc1cccc2sc(NC(=O)c3ccc(Cl)s3)nc12,6.44
5,CC(C)N1CCC(N2CCN(Cc3cccnc3)CC2CCO)CC1 (stereo not shown),4.23
6,Cc1cc(C)cc(NC2=CC(=O)CC(c3ccco3)C2)c1 (stereo not shown),14.5
7,CN(C)CCCNc1oc(/C=C/c2ccccc2)nc1C#N,-8.47
8,CCOC(=O)C1CCN(C(=O)c2ccc(Cl)c(NC3=NC4CS(=O)(=O)CC4S3)c2)CC1 (stereo not shown),12.8
9,CC(C)C[C@H](NC(=O)OC(C)(C)C)C(=O)N1CCC(C(=O)O)CC1,11.7
10,O=C(Nc1ccc2c(c1)OCCO2)C1CCN(C(=O)c2ccc(Cl)cc2)CC1,3.04
11,CNC(=O)CSc1nc2cc(S(=O)(=O)Nc3ccc(OC)cc3)ccc2o1,10
12,O=C(C1CC1)N1CCc2cc(Br)cc(S(=O)(=O)NCCN3CCOCC3)c21,2.16
13,O=C(CCc1nc2ccccc2c(=O)[nH]1)Nc1ccc(N2CCCCC2)cc1,3.38
14,CNc1nc(-c2ccc([N+](=O)[O-])cc2)cs1,5.3
15,C[C@H](NC(=O)c1ccc2ccccc2c1)C(=O)N1CCC2(CC1)NCCc1[nH]cnc12,12.7
16,CCc1ccccc1NC(=O)CN1CCC(NC(=O)COC)CC1.Cl,17.6
17,COc1ccccc1C(=O)Nc1ccc2c(c1)nc(CCNC(C)=O)n2C,14.6
18,CCc1c(-c2ccccc2)nc(N)c(C#N)c1-c1cccs1,6.32
19,COc1cc(/C=C/C(=O)OCC(=O)Nc2sc3c(c2C#N)CCC(C)C3)ccc1OCC#N (stereo not shown),8.42
20,COc1ccc(/C=N/NC(=O)c2ccn[nH]2)cc1COc1ccc([N+](=O)[O-])c(C)c1,14.4
21,Cc1cc(=O)[nH]c(SCC(=O)Nc2ccccc2C#N)c1C#N,11.9
22,CCN(CC)CCN(Cc1cc2cc3c(cc2[nH]c1=O)OCCO3)C(=O)NC1CCCCC1,-2.85

row,SMILES,"hERG current change (%, negative = inhibition) at 1uM [%]"
1,COc1ccccc1-c1cc(C(=O)NCCCn2ccnc2)no1,-2.43
2,O=c1[nH]c(SCc2cccc(Cl)c2)nc2c1CCCC2,1.9
3,COc1ccc(S(=O)(=O)Nc2ccc(-c3ccc(N4CCCC4)nn3)cc2)cc1C,11.6
4,C=CCOC(=O)C1=C[C@@H](c2cn(C(C)=O)c3ccccc23)C[C@@H](OCc2ccc(CO)cc2)O1,-14.1
5,CCOc1ccccc1N1CCN(C(=S)NCc2ccc(Cl)cc2)CC1,8.75
6,Cc1ccc(C)c(C(=O)Nc2ccncc2)c1,12.4
7,COCCNC(=O)Nc1ccc2c(c1)N(C)C(=O)c1ccccc1S2,7.57
8,CCS(=O)(=O)C1=NN2C(=N)/C(=C\c3ccc(OS(=O)(=O)c4ccccc4)c(OC)c3)C(=O)N=C2S1,16.5
9,COc1ccc(C(CC(=O)O)NS(=O)(=O)c2ccc3c(c2)NC(=O)CO3)cc1 (stereo not shown),12.1
10,CC1(N2CCCCC2)CC2(O)C(=[N+]1[O-])CCC/C2=N\O (stereo not shown),6.49
11,Oc1ccc(C=Nc2cccc3ncccc23)c(O)c1,6.61
12,COc1ccc(S(=O)(=O)Nc2nc3ccccc3nc2Nc2ccc3c(c2)OCO3)cc1,9.69
13,CCC1CCCCN1S(=O)(=O)Cc1ccccc1Cl (stereo not shown),9.58
14,COc1ccc(-c2cc(C(=O)N3CCCCCC3)c3cc(C)ccc3n2)cc1,23.4
15,COc1ccccc1N1CCNCC1.Cl,17.2
16,Cc1ccc(NC(=O)C2CCN(C(=O)c3ccco3)CC2)cc1,12.8
17,O=C(CN1CCc2cc3c(cc2C1)OCCCO3)Nc1c(F)cccc1F,8.46
18,CCCCCOc1ccc(C2NC(=O)NC2=O)cc1 (stereo not shown),3.89
19,COc1ccc(C2=NCc3nnc(C)n3-c3ccc(Cl)cc32)cc1Cl,4.72
20,CCCN(CCC)CCCNC(=O)C1c2cc(OC)c(OC)cc2C(=O)N(C)C1c1cccnc1 (stereo not shown),14.2
21,CN1C(=O)c2ccccc2Sc2ccc(C(=O)N3CCC4(CC3)OCCO4)cc21,1.09
22,COc1ccc(C(=O)NCCS(=O)(=O)N2CCN(Cc3ccccc3)CC2)cc1,11.9

row,SMILES,"hERG current change (%, negative = inhibition) at 1uM [%]"
1,Cc1ccc(Nc2nc(N3CCOCC3)nc(N3CCOCC3)n2)cc1C.Cl,7.46
2,CN(CCNC(=O)Cn1c(=O)sc2ccccc21)Cc1ccccc1,-2.68
3,COc1ccccc1-c1nc(C#N)c(N2CCC(Cc3ccccc3)CC2)o1,-1.64
4,CC(C)(C)C(=O)CN1CCN(S(=O)(=O)c2ccc(F)cc2)CC1,14.2
5,Cc1cc(C)c(S(=O)(=O)N2CCC(C(=O)NCc3ccco3)CC2)c(C)c1,-1.13
6,CCCCC1(C)OC(=O)C(=Cc2ccc(N(CC)CC)cc2)C(=O)O1 (stereo not shown),8.29
7,CCOc1ccc(CCNC(=O)C2(c3ccccc3)CC2)cc1OCC,14.6
8,Cc1cccc(NC(=O)CN2CCN(C(=O)c3cncn3-c3ccc(F)cc3)CC2)c1C,-22.2
9,O=C(NC1CCCCC1)c1ccccc1NC(=O)C1CC(=O)N(c2ccccc2)C1 (stereo not shown),-64.3
10,CCOC(=O)C1(Cc2ccc(OC)cc2)CCN(C(=O)CCN2CCCC2=O)CC1,13.1
11,O=C(NCCc1ccccc1)c1ccc(=O)oc1,8.3
12,Cc1cccc(N2CCN(C(=O)c3cccc(N4CCCC4=O)c3)C(C)C2)c1 (stereo not shown),12.3
13,Cc1cc(=O)n2nc(N3CCCC(C(=O)NCCC4=CCCCC4)C3)sc2n1 (stereo not shown),-4.44
14,CCOC(=O)c1sc(NC(=O)CSC(=S)N2CCN(C)CC2)nc1C,0.0501
15,COc1ccc(-c2ccc(-c3noc(-c4ccccc4C)n3)c(OC)n2)cc1,13.7
16,Cc1ccc(C)c(C(=O)NC2CC(C)(C)NC(C)(C)C2)c1,10.3
17,CC(C)[C@H](NS(=O)(=O)c1cccc(Cl)c1)C(=O)OCC(=O)N1CCN(c2ccccc2)CC1,4.53
18,CCc1ccc(C(=O)Nc2ccc3c(c2)n(C)c(=O)n3C)cc1,-0.871
19,CCOC(=O)Cc1csc(SCC(=O)N2CCN(c3ccc(OC)cc3)CC2)n1,-2.4
20,COc1ccc(-n2c(C)n[nH]c2=O)cc1,0.526
21,COc1ccccc1-n1c(C)nc(=O)c(-c2ccccc2)c1C,18.8
22,COc1ccccc1C(=O)NCC(=O)Nc1ccccc1,4.61
